Experimental data taken from ChEMBL document CHEMBL1201862, “PubChem BioAssay data set” (2004).
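Where inhibition never reached the appropriate level, the endpoint shown equals the highest concentration tested. Otherwise, values were interpolated linearly from a five-concentration, 48-hour dose response in 96-well plates. GI50 is the concentration that inhibits growth by half.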 Activity calls are given as the source filed them. Rule as the data show it: active = GI50 up to about 1.1 µM and inactive = higher.

Legend:
Experiment in all cases: DTP human tumour cell line panel, 48 h
[1] = test system: SNB-78
[2] = test system: DMS-273
[3] = test system: XF498
[4] = test system: RPMI-8226
[5] = test system: HL-60
[6] = test system: RXF 631
[7] = test system: HOP-92
[8] = test system: LXFL 529
[9] = test system: HCT-116
[10] = test system: UO-31
[11] = test system: SK-MEL-2
[12] = test system: SNB-75
[13] = test system: OVCAR-3
[14] = test system: MOLT-4
[15] = test system: KM-20L2
[16] = test system: EKVX
[17] = test system: CCRF-CEM
[18] = test system: SR
[19] = test system: DLD-1
[20] = test system: K562
[21] = test system: NCI-H522
[22] = test system: OVCAR-5
[23] = test system: HOP-18
[24] = test system: OVCAR-4
[25] = test system: TK-10

Q: With `CCCCOC(=O)Oc1cc2c(c(OC)c1OC)-c1ccc(SC)c(=O)cc1[C@@H](NC(C)=O)CC2` as the compound, how does the GI50 [1] read?
A: The GI50 was active: < 10 nM.

Q: What about the GI50 [2] of the same compound?
A: Its GI50 is active: < 10 nM.

Q: And the GI50 [3]?
A: Its GI50 is active: < 10 nM.

Q: And the GI50 [4]?
A: The GI50 was active: < 10 nM.

Q: What about the GI50 [5] of the same compound?
A: The GI50 was active: < 10 nM.

Q: What about the GI50 [6] of the same compound?
A: The GI50 was active: 13.2 nM.

Q: What about the GI50 [7] of the same compound?
A: The GI50 was active: < 10 nM.

Q: And the GI50 [8]?
A: Its GI50 is active: < 10 nM.

Q: And the GI50 [9]?
A: The GI50 was active: < 10 nM.

Q: What about the GI50 [10] of the same compound?
A: Its GI50 is active: 661 nM.

Q: And the GI50 [11]?
A: The GI50 was active: < 10 nM.

Q: And the GI50 [12]?
A: Its GI50 is active: < 10 nM.

Q: What about the GI50 [13] of the same compound?
A: The GI50 was active: < 10 nM.

Q: What about the GI50 [14] of the same compound?
A: Its GI50 is active: < 10 nM.

Q: What about the GI50 [15] of the same compound?
A: The GI50 was active: < 10 nM.

Q: And the GI50 [16]?
A: The GI50 was inactive: 84900 nM.

Q: What about the GI50 [17] of the same compound?
A: Its GI50 is active: < 10 nM.

Q: What about the GI50 [18] of the same compound?
A: The GI50 was active: < 10 nM.

Q: What about the GI50 [19] of the same compound?
A: The GI50 was active: < 10 nM.

Q: What about the GI50 [20] of the same compound?
A: The GI50 was active: < 10 nM.

Q: What about the GI50 [21] of the same compound?
A: The GI50 was active: < 10 nM.

Q: And the GI50 [22]?
A: Its GI50 is active: 578 nM.

Q: And the GI50 [23]?
A: Its GI50 is inactive: 17700 nM.

Q: And the GI50 [24]?
A: Its GI50 is inactive: 1220 nM.

Q: What about the GI50 [25] of the same compound?
A: The GI50 was inactive: 20000 nM.
